PubChem BioAssay (NCATS)
Inconclusive means that the source gave no clear call. Such entries were picked first, then a sample of the others. Potencies of inconclusive entries are doubtful fits and often do not repeat. Active and inactive are the calls of the source. The call rests on the fitted dose curve; in most records, active means well fitted curve in the direction sought with a large enough effect; inconclusive means small, poorly fitted or top-dose-only effect, or another doubt; inactive means no such curve, though single readings can be large; an effect the other way counts as inactive or inconclusive.

Tests used:
[1] = biological target: Rap guanine nucleotide exchange factor 3 (Homo sapiens) (UniProt O95398); experiment: Confirmatory qHTS for antagonist of cAMP-regulated guanine nucleotide exchange factor 3 (EPAC1) (AID 1645880); conditions: EPAC1 Rap1B-BODIPY-GDP exchange, fluorescence; activity, negative = inhibition: at 115 µM (top of the series); further: nearly all actives have a fitted effect of over 55% in size;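 on activity, negative = inhibition: plate controls were DMSO only for no effect and full effect of the ATA control for full effect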
Summary of the method: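 Nucleotide exchange uses 100 nM EPAC1, 250 nM RAP1B-BODIPY-GDP and 50 uM GDP, with compounds in a concentration-titration series. After 5 min at room temperature, fluorescence (480 nm ex/540 nm em) is read every 5 min for 30 min. Data are normalized to control ATA and DMSO.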

[2] = biological target: Rap guanine nucleotide exchange factor 4 (Homo sapiens) (UniProt Q8WZA2); experiment: Confirmatory qHTS for antagonist of cAMP-regulated guanine nucleotide exchange factor 4 (EPAC2) (AID 1645885); conditions: EPAC2 Rap1B-BODIPY-GDP exchange fluorescence, biochemical; activity change, negative = inhibition: at 12.7 µM (top of the series) unless noted; series mostly up to 114 µM; further: nearly all actives have a fitted effect of over 25% in size; on activity change, negative = inhibition: on the % scale 0 is the no-effect control and ±100 the full control effect
[3] = biological target: Rap guanine nucleotide exchange factor 3 (Homo sapiens) (UniProt O95398); experiment: Counterscreen qHTS for agonist of cAMP-regulated guanine nucleotide exchange factor 3 (EPAC1) (AID 1645889); conditions: EPAC1 Rap1B-BODIPY-GDP exchange, fluorescence; activation: at 154 µM (top of the series) unless noted; further: nearly all actives have a fitted effect of over 40% in size; on activation: % of control where 0% means no effect
Summary of the method: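 Measured: fluorescence of BODIPY-GDP bound to Rap1B, which falls as exchange proceeds. Conditions include 50 uM competing GDP, 5 and 30 min reads, and a later cAMP challenge for antagonist detection.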
Potency means the concentration at half of the fitted maximal effect; tags describe the fitted curve by direction and shape.

Chain of UniProt O95398 (O95398 whole entry, looked up): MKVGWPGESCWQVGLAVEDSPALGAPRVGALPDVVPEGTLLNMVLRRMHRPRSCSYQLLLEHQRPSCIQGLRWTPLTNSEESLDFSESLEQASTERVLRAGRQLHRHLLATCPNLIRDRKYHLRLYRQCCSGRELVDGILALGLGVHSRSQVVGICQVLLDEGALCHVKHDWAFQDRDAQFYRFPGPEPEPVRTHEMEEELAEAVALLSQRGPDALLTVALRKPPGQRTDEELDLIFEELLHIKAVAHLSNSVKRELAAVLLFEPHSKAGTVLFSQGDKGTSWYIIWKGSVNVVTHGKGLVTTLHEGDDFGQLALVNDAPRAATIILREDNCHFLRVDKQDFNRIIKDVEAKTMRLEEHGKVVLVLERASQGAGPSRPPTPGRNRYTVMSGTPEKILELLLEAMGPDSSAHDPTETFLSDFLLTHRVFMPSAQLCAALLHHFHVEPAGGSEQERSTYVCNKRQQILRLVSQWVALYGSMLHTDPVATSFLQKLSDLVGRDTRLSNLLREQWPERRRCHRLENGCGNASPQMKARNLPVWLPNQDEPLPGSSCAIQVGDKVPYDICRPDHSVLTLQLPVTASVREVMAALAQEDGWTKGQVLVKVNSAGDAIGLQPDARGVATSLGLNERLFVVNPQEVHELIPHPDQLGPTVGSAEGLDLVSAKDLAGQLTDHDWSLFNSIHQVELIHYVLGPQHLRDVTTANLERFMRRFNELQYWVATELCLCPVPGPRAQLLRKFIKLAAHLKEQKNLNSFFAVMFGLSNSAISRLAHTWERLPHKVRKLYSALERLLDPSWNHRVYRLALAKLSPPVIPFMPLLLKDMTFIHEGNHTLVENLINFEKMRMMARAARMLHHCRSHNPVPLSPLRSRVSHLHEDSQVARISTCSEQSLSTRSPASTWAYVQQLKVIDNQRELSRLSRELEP
Chain of UniProt Q8WZA2 (Q8WZA2 whole entry, looked up): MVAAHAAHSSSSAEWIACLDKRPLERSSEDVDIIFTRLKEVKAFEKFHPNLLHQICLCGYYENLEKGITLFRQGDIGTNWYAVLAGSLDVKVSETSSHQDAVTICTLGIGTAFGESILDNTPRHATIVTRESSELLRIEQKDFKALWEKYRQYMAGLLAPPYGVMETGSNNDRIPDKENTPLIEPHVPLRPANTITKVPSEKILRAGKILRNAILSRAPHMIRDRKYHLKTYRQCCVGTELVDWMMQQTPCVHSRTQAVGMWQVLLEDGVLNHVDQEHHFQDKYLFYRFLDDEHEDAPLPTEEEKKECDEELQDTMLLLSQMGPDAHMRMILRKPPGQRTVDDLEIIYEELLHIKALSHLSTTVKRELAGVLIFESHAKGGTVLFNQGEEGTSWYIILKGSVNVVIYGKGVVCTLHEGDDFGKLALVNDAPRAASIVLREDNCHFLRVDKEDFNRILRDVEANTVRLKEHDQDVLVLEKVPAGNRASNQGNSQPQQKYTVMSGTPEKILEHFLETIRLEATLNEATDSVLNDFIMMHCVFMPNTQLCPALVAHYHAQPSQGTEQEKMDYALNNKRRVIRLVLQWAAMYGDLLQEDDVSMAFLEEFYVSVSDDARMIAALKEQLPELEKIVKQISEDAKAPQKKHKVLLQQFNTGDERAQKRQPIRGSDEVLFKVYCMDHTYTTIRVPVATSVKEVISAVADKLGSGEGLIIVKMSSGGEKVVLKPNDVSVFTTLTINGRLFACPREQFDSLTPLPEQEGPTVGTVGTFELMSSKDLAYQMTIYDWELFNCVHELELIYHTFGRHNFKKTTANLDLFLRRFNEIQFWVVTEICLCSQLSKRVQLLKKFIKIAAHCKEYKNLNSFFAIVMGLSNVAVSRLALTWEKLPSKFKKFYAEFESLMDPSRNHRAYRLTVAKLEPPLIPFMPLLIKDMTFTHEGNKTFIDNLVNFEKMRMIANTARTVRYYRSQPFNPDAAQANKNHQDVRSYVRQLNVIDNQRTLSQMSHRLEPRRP

Row | SMILES | Potency [1] | Potency [2] | Potency [3] | activation [3]
1 | CC(C)CNC(=O)C1Nc2ccc(OC(F)(F)F)cc2C2C=CCC12 (stereo unspecified) | inconclusive: 47.8 µM [inhibitor, partial curve] | inconclusive: 67.5 µM [inhibitor, partial curve, poor fit] | inconclusive: 2.82 µM [activator, partial curve, poor fit] | –
2 | COc1ccccc1C(C(=O)c1ccccc1)c1ccc(O)cc1 (stereo unspecified) | inconclusive: 50.1 µM [inhibitor, partial curve, poor fit] | inactive | inconclusive: 14.1 µM [activator, single point] | –
3 | Cc1ccc(-c2nnc(Nc3ccc4c(c3)OCO4)c3ccccc23)cc1S(N)(=O)=O | active: 47.8 µM | inconclusive: 0.12 µM [inhibitor, full curve, poor fit] | – | inconclusive: 42.1% [activator]
4 | O=C(c1ccc(Br)cc1)N(Cc1cccs1)c1ccc(F)cc1 | inactive | inactive | inactive | –
5 | COc1cc(NC(=O)c2ccccc2NS(=O)(=O)c2ccc(Cl)s2)cc(OC)c1 | inconclusive: 67.5 µM [inhibitor, partial curve, poor fit] | inconclusive: 19 µM [inhibitor, full curve, poor fit] | inconclusive: 15.8 µM [activator, partial curve, poor fit] | –
6 | O=[N+]([O-])c1cc(Br)ccc1NS(=O)(=O)c1ccccc1 | inconclusive: 39.8 µM [inhibitor, partial curve] | inactive | – | inconclusive: 32.6% [activator] [at 30.8 µM]
7 | CC1COc2ccccc2N1S(=O)(=O)c1ccc(Cl)cc1 (stereo unspecified) | inconclusive: 67.5 µM [inhibitor, partial curve] | inconclusive: 21.3 µM [inhibitor, full curve] | inactive | –
8 | COCCNc1nc(Oc2ccccc2)c2sccc2n1 | inconclusive: 53.6 µM [inhibitor, partial curve, poor fit] | inactive | inactive | –
9 | Cc1cc(C)c2nc(N3C(=O)C(O)=C(C(=O)c4ccco4)C3c3ccc(O)cc3)sc2c1 (stereo unspecified) | active: 37.9 µM | inconclusive: 5.36 µM [inhibitor, partial curve, poor fit] | inconclusive: 4.47 µM [activator, full curve] | –
10 | COc1ccccc1[C@@]1(C)ON(c2ccccc2C(F)(F)F)C1=O | inconclusive: 75.7 µM [inhibitor, partial curve] | inconclusive: 47.8 µM [inhibitor, partial curve] | inconclusive: 6.31 µM [activator, partial curve, poor fit] | –
11 | CCCCn1nnnc1C(c1cc2ccccc2o1)N1CCN(c2ncccc2C#N)CC1 (stereo unspecified) | inconclusive: 7.94 µM [inhibitor, full curve, poor fit] | inconclusive: 6.01 µM [inhibitor, partial curve] | inconclusive: 2.24 µM [activator, partial curve] | –
12 | COc1ccccc1NC(=O)Nc1nc(CC(=O)Nc2ccc(N(C)C)cc2)cs1 | inactive | inactive | inconclusive: 11.2 µM [activator, single point] | –
13 | O=C1NC[C@H](Cc2ccc(O)cc2)N(C[C@@H]2CCCN2C[C@H](Cc2ccc(O)cc2)N2C[C@H](Cc3ccccc3)N(CC3CCCCCC3)C(=O)C2=O)C1=O | inconclusive: 47.8 µM [inhibitor, partial curve, poor fit] | inconclusive: 15.1 µM [inhibitor, full curve] | – | inconclusive: 22.4% [activator]
14 | CC(C)CN(C(=O)CC1OC(=O)c2ccccc21)c1c(N)n(Cc2ccccc2)c(=O)[nH]c1=O (stereo unspecified) | inactive | inactive | – | inconclusive: 46.5% [activator]
15 | CCOC(=O)c1cc2c(ccn2C)n1CC(=O)N1CCN(c2cccc(C(F)(F)F)c2)CC1 | inconclusive: 39.8 µM [inhibitor, partial curve, poor fit] | inactive | – | inconclusive: 52.2% [activator] [at 30.8 µM]
16 | COc1cc(NC(=O)c2ccnc(N)c2)cc(C(=O)Nc2cccc(C(F)(F)F)c2)c1 | active: 42.6 µM | inactive | inactive | –
17 | NC(=O)c1cc2ccccc2o/c1=N\NC(=O)c1ccncc1 | inactive | inactive | inconclusive: 0.01 µM [activator, full curve, poor fit] | –
